From PubChem BioAssay AID1030 (National Center for Advancing Translational Sciences (NCATS), 2008)
Screen size: about 220,000 compounds; about 16,000 (7.3%) were called active. The inconclusive results got no clear call from the source; some entries with a clear call stand among them for comparison. The call rests on the fitted dose curve; in most records, active means well fitted inhibition curve with a large enough effect (not every such curve was filed as active); inconclusive means small, poorly fitted or top-dose-only effect, or another doubt; inactive means no such curve, though single readings can be large or run the other way. A potency beside an inconclusive call is a rough fit, not a confirmed value.

molecular target: Aldehyde dehydrogenase 1A1 (Homo sapiens) (UniProt P00352); test: qHTS Assay for Inhibitors of Aldehyde Dehydrogenase 1 (ALDH1A1); details: Purified ALDH1A1, NADH fluorescence, propionaldehyde substrate; series mostly up to 75.3 µM
UniProt P00352, sequence (P00352 whole entry, looked up): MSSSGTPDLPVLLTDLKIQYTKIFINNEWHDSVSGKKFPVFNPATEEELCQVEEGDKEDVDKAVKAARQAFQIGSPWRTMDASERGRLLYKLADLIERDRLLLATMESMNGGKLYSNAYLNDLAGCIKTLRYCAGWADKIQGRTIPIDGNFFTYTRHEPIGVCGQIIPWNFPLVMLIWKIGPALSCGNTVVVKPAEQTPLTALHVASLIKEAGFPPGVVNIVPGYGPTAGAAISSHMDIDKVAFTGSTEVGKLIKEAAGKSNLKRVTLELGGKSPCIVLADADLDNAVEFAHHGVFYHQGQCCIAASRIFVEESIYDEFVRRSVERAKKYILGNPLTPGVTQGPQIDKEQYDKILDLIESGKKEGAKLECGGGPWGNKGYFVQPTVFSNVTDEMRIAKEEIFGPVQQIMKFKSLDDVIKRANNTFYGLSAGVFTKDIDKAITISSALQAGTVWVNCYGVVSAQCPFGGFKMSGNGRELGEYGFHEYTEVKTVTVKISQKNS
Potency means the concentration at half of the fitted maximal effect; tags describe the fitted curve by direction and shape.

Potency, inactive:
N#C/C(=C/c1cccn1-c1cccc(C(=O)O)c1)c1ccc(F)cc1, CCOC(=O)C1=C(c2ccccc2)NC(=O)NC1c1cc(Cl)c(O)c(OC)c1 (stereo not given), COc1ccc(CN(C(=S)Nc2ccccc2)C2CC(=O)N(c3ccc(F)cc3)C2=O)cc1 (stereo not given), O=C(Nc1ccc(N2CCN(C(=O)c3ccc(Cl)cc3)CC2)cc1)c1ccc(Br)o1, CC(NCc1ccc(N(C)C)cc1)C1CC2CCC1C2 (stereo not given), CC1CN(C(=O)CN2C(=O)c3ccccc3S2(=O)=O)CC(C)O1 (stereo not given), COc1cc(/C=C2\SC(=S)N(CCC(=O)Nc3ccccc3)C2=O)cc(OC)c1OC, COCC(=O)N1CCC2(CC1)CN(C(=O)Nc1cccc(C#N)c1)C2, COc1cc(NC(=S)Nc2ccc(N(C)C(C)=O)cc2)cc(OC)c1, CCc1nc2sc3c(c2c(=O)o1)CCCC3, CCN(CC)C(=O)c1ccc(C)c(Br)c1, O=C(CSc1nnc2ccc(-c3ccncc3)nn12)N1CCCCC1, CC1=Nn2c(nc(-c3ccccc3)c2-c2ccccc2)N(CC(N)=O)C(=O)C1, COc1ccc(CNc2nc(-c3cccc(NS(C)(=O)=O)c3)nc3ccccc23)c(OC)c1, O=C(O)c1cnn(-c2ccccc2)c1-n1cccc1, O=C(Nc1ccc(NC(=O)C2CC2)nc1)c1cnccn1, Cc1ccc(-n2c(CNc3ccc(C)c(Cl)c3)n[nH]c2=S)cc1, CCCCC/C=C\C/C=C\C[C@H](O)/C=C/C=C\CCCC(=O)O, Cn1cc(Br)c(C(=O)NC(=S)N2CCN(c3ccccn3)CC2)n1, CC(C)CCNC(=O)CC1Nc2c3ccccc3nc(=S)n2C1=O (stereo not given)

Potency, active:
C/C(=N\NC(=O)c1ccc(-c2ccccc2)cc1)c1cccc(N)c1 22.4 µM, Cc1ccc(SCc2ccc(C(=O)N3CCCCC3)cc2)cc1 3.98 µM, COc1ccc(C(C)=O)cc1COC(=O)c1ccc(N)c([N+](=O)[O-])c1 10 µM, COc1cc(SC#N)ccc1N=Cc1c(C)[nH]n(-c2ccc(C)cc2)c1=O 0.631 µM, CCCCn1cnc2c(oc3nc4c(cc32)CCCC4)c1=O 1.26 µM

Potency, inconclusive:
CCOC(=O)NN1C(=O)c2ccccc2NC1c1ccccc1 (stereo not given) 35.5 µM [inhibitor, single point], CC(=O)c1ccc(N2CCN(C(=S)Nc3ccc(Oc4ccccc4)cc3)CC2)cc1 25.1 µM [inhibitor, single point], COc1cccc(Cn2c(=O)c(C)nc3cnc(N(C)C)nc32)c1 28.2 µM [inhibitor, partial curve], CO/N=C\c1cc(C(=O)c2ccc(Cl)cc2Cl)cn1C 22.4 µM [inhibitor, single point], CCN(CC)C(=O)c1c2c(nc3ccccc13)-c1ccccc1CC2 44.7 µM [inhibitor, single point], Cc1ccc(-c2nnc(-c3ccc(NC(=O)c4cccs4)cc3)o2)cc1 28.2 µM [inhibitor, single point], CCOC(=O)OCC 28.2 µM [inhibitor, single point], CCc1[nH]c(=O)c(C#N)c2c1CSC(C)(C)C2 39.8 µM [inhibitor, single point], CCOc1c2ccc(C(=O)NCCCCc3ccccc3)cc2nn1CC 28.2 µM [inhibitor, partial curve], CN(C=C1C(=O)CC(C)(C)CC1=O)CCN1CCNCC1 39.8 µM [inhibitor, single point], Cc1ccc(SCc2cc(=O)[nH]c(N3CCN(C)CC3)n2)cc1 17.8 µM [inhibitor, single point], N#C/C(=C/c1ccc(-c2ccc(C(=O)O)c(Cl)c2)o1)C(=O)NCC1CCCO1 (stereo not given) 39.8 µM [inhibitor, single point], CC1CN(c2nc3ccccc3cc2-c2ccccc2)CC(C)O1 (stereo not given) 39.8 µM [inhibitor, single point], Cc1csc(NC(=O)c2ccc3c(=O)n4c(nc3c2)CCCCC4)n1 28.2 µM [inhibitor, partial curve], CNC(=S)/N=C/NOCc1c(Cl)cccc1Cl 39.8 µM [inhibitor, single point], Cc1nc(NCc2ccccc2)c2nc(-c3ccccc3)n(CCCN3CCCCC3C)c2n1 (stereo not given) 28.2 µM [inhibitor, partial curve], COc1ccc2[nH]c(=O)c(CN(Cc3ccc4c(c3)OCO4)C(C)=O)cc2c1 31.6 µM [inhibitor, partial curve], COc1cc2cc(CN(CCCN3CCOCC3)C(=O)Nc3ccc(F)cc3)c(=O)[nH]c2cc1OC 35.5 µM [inhibitor, single point], O=C(COc1ccccc1Cl)Nc1cnn(Cc2ccccc2)c1 28.2 µM [inhibitor, single point], C=CCSC1=Nc2cc(OC)c(OC)cc2C2=NC(=O)CN12 22.4 µM [inhibitor, partial curve], COc1ccc(/C=N/Nc2ncc(C(F)(F)F)cc2Cl)c(OC)c1OC 39.8 µM [inhibitor, single point], O=S(=O)(c1cccs1)N1CCN(C/C=C/c2ccccc2)CC1 31.6 µM [inhibitor, single point], COC(=O)CSc1nnc2n1C(C)(C)Cc1ccccc1-2 39.8 µM [inhibitor, single point], CCOC(=O)c1cc(C(=O)OCC)cc(-n2c(C)cc(C(=O)CN3CCOCC3)c2C)c1 28.2 µM [inhibitor, partial curve], O=S(=O)(Nc1cc(Cl)ccc1N1CCCCC1)c1cccs1 39.8 µM [inhibitor, single point]
